Article PMC9911399, “Two distinct binding modes provide the RNA-binding protein RbFox with extraordinary sequence specificity”
Positions count from the first letter of the chain named. The list shows a part of the results.

T1: RBFOX1 RRM RbFoxmut (Fox-RRM*) (Homo sapiens, UniProt Q9NWB1 109-208, R118D;E147R;N151S;E152T)
T1 sequence: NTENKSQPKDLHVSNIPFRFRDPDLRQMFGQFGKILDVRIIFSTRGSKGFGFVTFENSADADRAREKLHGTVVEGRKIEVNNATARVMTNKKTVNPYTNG

B1: CCCUUAG (DNA:RNA)
RNA: GGGAGACCGGAAUUCAGAUUGUCCCCCUUAGUUAAAUCCCGUCGUAGCCACCA
DNA 1: CAATCTGAATTCCGGTCTCCC
DNA 2: TGGTGGCTACGACGGGATT
B2: GCAACAA (DNA:RNA)
RNA: B1 RNA with C25G, C27A, U28A, U29C, G31A
DNA 1: CAATCTGAATTCCGGTCTCCC
DNA 2: TGGTGGCTACGACGGGATT
B3: CGGGAUA (DNA:RNA)
RNA: B1 RNA with C26G, C27G, U28G, U29A, A30U, G31A
DNA 1: CAATCTGAATTCCGGTCTCCC
DNA 2: TGGTGGCTACGACGGGATT
B4: ACGCCCA (DNA:RNA)
RNA: B1 RNA with C25A, C27G, U28C, U29C, A30C, G31A
DNA 1: CAATCTGAATTCCGGTCTCCC
DNA 2: TGGTGGCTACGACGGGATT
B5: ACCGACU (DNA:RNA)
RNA: B1 RNA with C25A, U28G, U29A, A30C, G31U
DNA 1: CAATCTGAATTCCGGTCTCCC
DNA 2: TGGTGGCTACGACGGGATT
B6: GAUCUUU (DNA:RNA)
RNA: B1 RNA with C25G, C26A, C27U, U28C, A30U, G31U
DNA 1: CAATCTGAATTCCGGTCTCCC
DNA 2: TGGTGGCTACGACGGGATT
B7: CCUACUG (DNA:RNA)
RNA: B1 RNA with C27U, U28A, U29C, A30U
DNA 1: CAATCTGAATTCCGGTCTCCC
DNA 2: TGGTGGCTACGACGGGATT
B8: GCCAGGC (DNA:RNA)
RNA: B1 RNA with C25G, U28A, U29G, A30G, G31C
DNA 1: CAATCTGAATTCCGGTCTCCC
DNA 2: TGGTGGCTACGACGGGATT
B9: UCGUCCU (DNA:RNA)
RNA: B1 RNA with C25U, C27G, U29C, A30C, G31U
DNA 1: CAATCTGAATTCCGGTCTCCC
DNA 2: TGGTGGCTACGACGGGATT

molecular target: T1, RBFOX1 RRM RbFoxmut (Fox-RRM*); test: EMSA; HiTS-Eq, 1 nM pool, 10 min; buffer printed only for the single-RNA assays: 10 mM Tris pH 7.5, 150 mM NaCl, 3.4 mM EDTA, 0.001% NP-40, 30 C; settings: tags: His6 N-terminal (pET28a); label: 5' 32P
Outline: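 Relative association constants, normalised to the cognate motif, were derived by comparing read counts of each RNA species with those of the control reaction. The RNA sequenced was the free fraction, separated by 8% native PAGE after a 10 min equilibration in 50 µL of 1 nM 5′-radiolabelled RNA (7 randomized nucleotides) with increasing concentrations of purified wild-type or mutant RbFox RRM.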

Row | Binder | binding signal
1 | B1 | 0.13 KA relative to UGCAUGU
2 | B2 | 0.0734 KA relative to UGCAUGU
3 | B3 | 0.119 KA relative to UGCAUGU
4 | B4 | 0.0696 KA relative to UGCAUGU
5 | B5 | 0.0544 KA relative to UGCAUGU
6 | B6 | 0.0548 KA relative to UGCAUGU
7 | B7 | 0.126 KA relative to UGCAUGU
8 | B8 | 0.0762 KA relative to UGCAUGU
9 | B9 | 0.0951 KA relative to UGCAUGU
